No constants are given. Whether binding was seen depends on the method and setting. Some binding calls cover weakened binding; strength is not graded here.

By UniProt entry, the sequences of proteins in these tests, tags left out. Where a name states a change or a piece, a line headed by the entry shows the natural chain unless it says otherwise. Chains listed by the source or under a name are the forms on record and can include a tag or linker. Residues count along the entry.
homeo-Prospero domain (HDPD) of human Prox1, amino acids 547-737, fused to the Gal4 DNA binding domain (Q92786, residues 547-737): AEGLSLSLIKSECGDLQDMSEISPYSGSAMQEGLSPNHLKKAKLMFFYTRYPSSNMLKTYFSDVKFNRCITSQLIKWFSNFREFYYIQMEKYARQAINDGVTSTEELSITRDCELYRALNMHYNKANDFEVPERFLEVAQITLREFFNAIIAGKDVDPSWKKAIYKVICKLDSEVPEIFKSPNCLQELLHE
homeodomain (HD) of human Prox1, amino acids 547-642, fused to the Gal4 DNA binding domain (Q92786, residues 547-642): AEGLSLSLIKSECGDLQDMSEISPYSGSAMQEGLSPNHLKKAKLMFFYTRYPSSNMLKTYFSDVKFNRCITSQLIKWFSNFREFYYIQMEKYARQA
Prospero domain (PD) of human Prox1, amino acids 638-737, fused to the Gal4 DNA binding domain (Q92786, residues 638-737): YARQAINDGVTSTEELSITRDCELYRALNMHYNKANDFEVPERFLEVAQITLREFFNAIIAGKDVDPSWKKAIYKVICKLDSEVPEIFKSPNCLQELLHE
Prox1 homeo-Prospero domain PIP box mutant LFF (Q92786, form named): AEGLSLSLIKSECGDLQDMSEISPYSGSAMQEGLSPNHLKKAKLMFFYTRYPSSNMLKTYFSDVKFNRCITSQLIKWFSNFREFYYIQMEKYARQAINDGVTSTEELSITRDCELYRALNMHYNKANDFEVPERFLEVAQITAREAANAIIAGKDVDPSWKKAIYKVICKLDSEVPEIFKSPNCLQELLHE
UniProt P17918: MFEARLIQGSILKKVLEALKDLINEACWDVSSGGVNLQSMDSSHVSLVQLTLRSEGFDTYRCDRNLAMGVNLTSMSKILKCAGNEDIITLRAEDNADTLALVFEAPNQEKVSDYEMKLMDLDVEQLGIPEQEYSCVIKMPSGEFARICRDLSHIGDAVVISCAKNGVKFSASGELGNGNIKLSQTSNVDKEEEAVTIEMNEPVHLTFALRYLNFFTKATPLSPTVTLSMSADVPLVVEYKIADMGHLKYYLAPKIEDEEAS

Assay [1] has as its target homeo-Prospero domain (HDPD) of human Prox1, amino acids 547-737, fused to the Gal4 DNA binding domain (human) (UniProt Q92786). The assay is described as follows: two-hybrid; mating of AH109 (Gal4 DNA-binding domain-Prox1 bait) with Y187 (Gal4 activation domain-PCNA prey); colonies from DO plates restreaked on high stringency quadruple drop out (QDO) plates with X-alpha-Gal; growth and blue colour.

Assay [2] addresses Prox1 homeo-Prospero domain PIP box mutant LFF (human) (UniProt Q92786). The assay is described as above.
Assay [3] addresses homeo-Prospero domain (HDPD) of human Prox1, amino acids 547-737, fused to the Gal4 DNA binding domain (human) (UniProt Q92786). The assay is described as follows: two-hybrid; relative strength of the interaction by beta-galactosidase assay with ONPG as substrate on QDO liquid cultures of the mated yeast.
Assay [4] concerns the target homeodomain (HD) of human Prox1, amino acids 547-642, fused to the Gal4 DNA binding domain (human) (UniProt Q92786). The assay is described as follows: two-hybrid; mating of AH109 (Gal4 DNA-binding domain-Prox1 bait) with Y187 (Gal4 activation domain-PCNA prey); colonies from DO plates restreaked on high stringency quadruple drop out (QDO) plates with X-alpha-Gal; growth and blue colour.

The target in assay [5] is Prospero domain (PD) of human Prox1, amino acids 638-737, fused to the Gal4 DNA binding domain (human) (UniProt Q92786). The description is as above.
The target of assay [6] is homeo-Prospero domain (HDPD) of human Prox1, amino acids 547-737, fused to the Gal4 DNA binding domain (human) (UniProt Q92786). The assay can be described thus: two-hybrid; screen of an 11 dpc mouse embryo cDNA library (pACT2, Y187) with pGBKT7-Prox1 HDPD in AH109; SD/-Leu/-His/-Ade/-Trp with X-alpha-Gal, Matchmaker 3 high stringency protocol.

As for “PCNA C+ fragment (amino acids 115-261), carboxyl-terminal domain 2 plus the IDCL, fused to the Gal4 activation domain (from UniProt P17918 115-261) (domain or fragment)”, the binding entry in assay [1] is recorded as “binds”; in assay [2], “no binding”; in assay [3], “binds”.
For “PCNA C- fragment (amino acids 135-261), lacking the IDCL, fused to the Gal4 activation domain (from UniProt P17918 135-261) (domain or fragment)”, the binding entry in assay [1] and in assay [3] was “binds” throughout.
Take “PCNA N+ fragment (amino acids 1-135), amino-terminal domain one plus the IDCL, fused to the Gal4 activation domain (from UniProt P17918 1-135) (domain or fragment)”: the binding result in assay [1] is given as “binds”.
Take “carboxyl-terminus of PCNA (amino acids 167-261), original clone isolated from the library, fused to the Gal4 activation domain (from UniProt P17918 167-261) (domain or fragment)”: the binding entry in assay [1] was “binds”; in assay [4], “no binding”; in assay [2] it was “no binding”; in assay [5], “no binding”; in assay [6], “binds”; in assay [3] it was “binds”.
